Test results: PubChem BioAssay AID624202 (National Center for Advancing Translational Sciences (NCATS), 2012)
In all, about 380,000 compounds went through this assay and about 4,000 (1.1%) were called active. Inconclusive results, whose numbers are uncertain, are shown with a selection of clear calls. Calls follow the shape of the dose curve; as a rule, active = well fitted activation curve with a large enough effect; inconclusive = small, poorly fitted or top-dose-only effect; inactive = no such curve, though single readings can be large or run the other way. Potencies beside an inconclusive call are fits to weak or partial responses and may not hold up.
Potency is read from the fitted curve at half-maximal effect; tags tell the direction and shape of the fitted curve.

Experiment: qHTS Assay to Identify Small Molecule Activators of BRCA1 Expression; also: nearly all actives have a fitted effect of over 80% in size
Details: MCF7-BRCA1-FFLuc reporter, luminescence, 48 h; activation: at 46.1 µM (top of the series), scaled: vehicle 0%, 10 µM genistein 100% unless noted
Excerpt: Functionally, BRCA1 has been implicated in a wide array of cellular activities, including DNA damage repair, cell-cycle checkpoint control, growth inhibition, apoptosis, transcriptional regulation, chromatin remodeling, protein ubiquitylation, and mammary stem cell self-renewal and differentiation. Reduction in BRCA1 levels is associated with an increase in tumor growth and resistance to anti-estrogenic agents, such as tamoxifen, while an increase in BRCA1 expression leads to cell growth arrest and apoptosis. […] The frequent loss of BRCA1 expression in invasive breast cancers in the absence of somatic mutation has been attributed to numerous mechanisms, including hypermethylation of the BRCA1 promoter, exaggerated ubiquitylation of BRCA1 protein, and improper intracellular localization. […] Basal-like breast cancers (BLBCs) are associated with an aggressive clinical course, resistance to chemotherapy, and typically lack expression of estrogen receptor (ER), progesterone receptor (PR), and epidermal growth factor receptor 2 (HER2). BLBCs account for 10-17% of all breast cancers, have few therapeutic options, and are considered the biggest unmet need in the treatment of breast cancer. Conversely, tumors which maintain expression of functional BRCA1 are almost uniformly luminal type cancers, and are accordingly associated with more indolent clinical courses, responsiveness to endocrine therapies, and improved survival.
As such, it is possible that an increase in BRCA1 expression would enable cellular differentiation and restore tumor suppressor function, resulting in delayed tumor growth and less aggressive, more treatable breast cancers. The long term goal of this proposal is to develop a novel prevention or therapeutic agent for breast cancer patients. To accomplish this goal, the overall objective of this proposal is to access the resources provided by the NIH Molecular Libraries Roadmap Initiative and the Molecular Libraries Probe Production Centers Network (MLPCN) to discover and develop new chemical activator probes that will increase BRCA1 expression and function.
NIH Molecular Libraries Probe Production Network [MLPCN]
NIH Chemical Genomics Center [NCGC]
PI Name: Lisa Harlan-Williams, University of Kansas Medical Center
5microl of MCF7-BRCA1-FFLuc cell suspension (400 cells/microl in phenol-red free MEM) are dispensed into Greiner white solid bottom 1536-well assay plates, yielding a final well density of 2000 cells/well. Plates are incubated for 2 hours at 37 degrees C in 5% humidified CO2 to allow cell attachment. Compounds are then transferred via Kalypsys pin tool equipped with 1536-pin array (10nl slotted pins, V&P Scientific, San Diego, CA). The plates are then incubated at 37 degrees C in 5% humidified CO2 for 48 hours. The NCGC in-house luciferase substrate reagent, Buglite, is then added (2.5microl) and plates incubated for 15 minutes, before being transferred to a ViewLux high-throughput CCD imager (PerkinElmer) wherein single end-point measurements of luminescence are acquired using a clear filter. The positive control compound, genistein, will be pinned into dedicated control columns on each plate, including a 16-point 1:3 titration in duplicate, as well as a 10microM maximum activation control, allowing for the normalization of screening activity. DMSO will be pinned into a separate column as a negative control.
All screening operations will be performed on a fully integrated robotic system (Kalypsys, San Diego, CA) containing one RX-130 and two RX-90 anthropomorphic robotic arms (Staubli, Duncan, SC). Library plates will be screened starting from the lowest and proceeding to the highest concentration. Vehicle-only plates, with DMSO being pin-transferred to columns 5-48, will be inserted uniformly at the beginning and the end of each library in order to monitor and record any shifts in the background, which can be affected by reagent dispensers or loss in enzyme activity over time. […]
For O=C(CSc1nnc(NC2CCCCC2)s1)Nc1ccc2c(c1)C(=O)c1ccccc1C2=O, the Potency was active: 4.47 µM.
For COc1ccc(N2CCN(C(=O)c3ccc4nc(N5CCC(C)CC5)sc4c3)CC2)cc1, the Potency was inconclusive: 1.58 µM [activator, full curve, poor fit].
For CCN1CCN(C(=O)c2ccc(-c3nc4ccccc4s3)s2)CC1, the Potency was inconclusive: 0.631 µM [activator, full curve, poor fit].
With C=CCn1c(NCc2ccc(N(C)C)cc2)nc2ccccc21 the Potency was inconclusive: 15.8 µM [activator, partial curve, poor fit].
In the case of CC(C)c1cc(C(=O)Nc2cc(Cl)ccc2O)no1, the Potency is reported as inconclusive: 35.5 µM [activator, single point].
For CC(C)CC1NC(=O)N(CC(=O)c2ccc3c(c2)OCCO3)C1=O (configuration not stated), the Potency was inconclusive: 2.24 µM [activator, full curve, poor fit].
In the case of O=C(COc1ccc(Cl)cc1Cl)NC1CCSC1=O (configuration not stated), the Potency is reported as inconclusive: 8.91 µM [activator, partial curve, poor fit].
For Cc1cc(C(=O)Nc2ccc(Cl)cc2)c(C)n1Cc1cccs1, the activation was inconclusive: -11% [activator].
With COc1cc(/C=C(\C#N)C(=O)Nc2cccc(C(=O)O)c2)ccc1OCc1ccc(C)cc1 the Potency was active: 5.01 µM.
With CCC(CO)Nc1ccn2nc(-c3cccc(Cl)c3)cc2n1 (configuration not stated) the Potency was inconclusive: 1.58 µM [activator, full curve, poor fit].
For CCOC(=O)c1ccc(NC(=O)N2CCCCCC2)cc1, the Potency was inconclusive: 4.47 µM [activator, partial curve, poor fit].
With O=C(Nc1ccccc1C(=O)O)c1ccc(NC(=O)C2CC2)cc1 the “activation” value was inactive: 13.7%.
For O=C(NCCc1ccc(Cl)cc1)c1cccc(N2CCCC2=O)c1, the Potency was inconclusive: 11.2 µM [activator, partial curve, poor fit].
With COCCCn1c(C)cc(C(=O)COC(=O)C23CC4CC(CC(O)(C4)C2)C3)c1C the Potency was inconclusive: 2.82 µM [activator, full curve, poor fit].
In the case of O=[N+]([O-])c1ccc(N2CCN(C(=S)Nc3ccc(F)cc3F)CC2)cc1, the “activation” value is reported as inactive: 18%.
With Cc1ccccc1CNC(=O)Cc1ccccc1[N+](=O)[O-] the Potency was active: 14.1 µM.
For CC(C)(C)C(=O)Nc1ccc(/C=C/C(=O)c2ccco2)cc1, the Potency was inconclusive: 1 µM [activator, full curve, poor fit].
With O=C(c1ccc(CS(=O)Cc2ccccc2Cl)o1)N1CCN(c2ccccn2)CC1 (configuration not stated) the “activation” value was inactive: -9.65%.
For O=C(Nc1nc2ccccc2s1)c1ccc2c(c1)OCO2, the activation was inconclusive: -42.7% [activator].
With O=C(c1cc(-c2ccc(Br)cc2)on1)N1CCCCCC1 the Potency was inconclusive: 1.26 µM [activator, full curve, poor fit].
For CN1CCC(N(C)S(=O)(=O)c2ccc(NC(=O)COc3ccc(F)cc3Cl)cc2)CC1, the “activation” value was inactive: -5.59%.
With COc1ccc(Cc2n[nH]c(=S)n2NC(=O)Nc2ccc(C)cc2)cc1 the Potency was active: 12.6 µM.
For CCOC(=O)C1CCN(C(=O)c2cc3cc(C)ccc3[nH]2)CC1, the Potency was active: 2.82 µM.
For O=C(CNC(=O)c1sc2ccccc2c1Cl)NC1CC1, the Potency was inconclusive: 12.6 µM [activator, partial curve, poor fit].
With COc1cc2c(cc1NC(=O)Cc1ccc(C)cc1)oc1ccccc12 the Potency was active: 7.94 µM.
For COc1cccc(CNc2ccc3c(c2)ncn3C(C)C)c1OC, the Potency was inconclusive: 35.5 µM [activator, single point].
For O=C(Nc1ccc(Nc2ccccc2)cc1)c1ccco1, the Potency was inconclusive: 0.794 µM [activator, full curve, poor fit].
With C/C(N)=C(/C#N)C(=O)COC(=O)c1cc(C)n(-c2ccc(F)cc2)c1C the Potency was active: 8.91 µM.
For c1ccc(NCC2OCc3ccccc3CO2)cc1, the Potency was inconclusive: 12.6 µM [activator, partial curve, poor fit].
In the case of COc1cc(/C=C(\C#N)c2nc3ccc(C)cc3[nH]2)cc([N+](=O)[O-])c1O, the Potency is reported as active: 7.08 µM.
In the case of Nc1ccc(C(=O)Nc2cccc(NC(=O)c3ccc(N)cc3)c2)cc1, the “activation” value is reported as inactive: 13.4%.
With c1ccc(CSc2nnc(NC3CCCCC3)s2)cc1 the Potency was active: 3.55 µM.
For CCCCCn1cnc2sc(CC)cc2c1=O, the Potency was inconclusive: 11.2 µM [activator, partial curve, poor fit].
For O=C(/C=C/c1ccccc1)NC(=S)Nc1ccccc1O, the Potency was inconclusive: 2.51 µM [activator, full curve, poor fit].
In the case of CC(=O)Nc1cccc(-c2csc(Nc3cccc(C)n3)n2)c1, the Potency is reported as inconclusive: 3.55 µM [activator, full curve, poor fit].
With O=C1SC(SCc2ccccc2)=N/C1=C\c1ccco1 the “activation” value was inactive: 1.16%.
With O=C(O)c1cccc(-c2ccc(/C=c3/sc4nc5ccccc5n4c3=O)o2)c1 the Potency was inconclusive: 20 µM [activator, single point].
For COc1ccc(NC(=O)Nc2cccs2)cc1Cl, the Potency was inconclusive: 8.91 µM [activator, partial curve, poor fit].
With COc1ccccc1/C=C/C=N/n1c(-c2ccccn2)n[nH]c1=S the Potency was active: 11.2 µM.
In the case of Cc1ccc(OC(=O)c2cccc([N+](=O)[O-])c2)c(-n2nc3ccccc3n2)c1, the Potency is reported as inconclusive: 10 µM [activator, partial curve, poor fit].
For CC(=O)Nc1ccc(/C=N/Nc2nc3ccccc3s2)cc1, the Potency was inconclusive: 1.26 µM [activator, full curve, poor fit].
For COc1ccc(CSc2nnc(N)s2)cc1F, the Potency was inconclusive: 11.2 µM [activator, partial curve, poor fit].
In the case of Cc1cc(C(=O)CN2CCC(C)CC2)c(C)n1-c1ccc(F)cc1, the Potency is reported as inconclusive: 0.794 µM [activator, full curve, poor fit].
In the case of C=C(C)Cn1cnc2c(oc3nc4c(cc32)CCCC4)c1=O, the Potency is reported as active: 5.62 µM.
For COc1cc2c(-c3cc(F)cc(F)c3)c(-c3ccsc3)oc(=O)c2cc1OC, the “activation” value was inactive: 7.92%.
With c1ccc(COc2ccc(OCCCCN3CCCCC3)cc2)cc1 the “activation” value was inactive: 66.9%.
For Cc1ccc(CNC(=O)CSc2ccsc2[N+](=O)[O-])cc1, the Potency was inconclusive: 2.24 µM [activator, full curve, poor fit].
For Cc1ccc(S(=O)(=O)N2C[C@H]3N(C(=O)OC(C)C)N(C(=O)OC(C)C)C[C@H](OC(=O)Nc4c(C)noc4C)[C@@]3(O)C2)cc1, the “activation” value was inactive: 7.18%.
In the case of COc1ccc(C(=O)OCC(=O)c2ccc[nH]2)c(OC)c1, the Potency is reported as active: 8.91 µM.
With OCCOCCNc1ncnc2c1cnn2-c1ccc(Cl)cc1 the Potency was inconclusive: 0.631 µM [activator, full curve, poor fit].
With CCC(=O)Nc1cc(NC(=O)CSc2ncc(-c3ccc(F)cc3)n2Cc2ccco2)ccc1C the Potency was inconclusive: 15.8 µM [activator, partial curve, poor fit].
With CC1CCC/C(=C(\C#N)c2nc(-c3cc4ccccc4oc3=O)cs2)C1 (configuration not stated) the Potency was active: 3.16 µM.
In the case of Cc1ccc(-c2noc(CSc3ccccc3)n2)cc1, the Potency is reported as inconclusive: 2.24 µM [activator, full curve, poor fit].
For Cn1/c(=N\NC(=O)c2ccccc2Cl)sc2ccccc21, the Potency was active: 11.2 µM.
In the case of O=C(Nc1cccnc1Cl)c1cc(-c2ccccc2O)on1, the Potency is reported as active: 8.91 µM.
In the case of CCN(C(=O)CSc1ncc(S(=O)(=O)c2ccc(C)c(Cl)c2)c(=O)[nH]1)c1cccc(C)c1, the “activation” value is reported as inactive: 0%.
In the case of O=C(Nc1ccc2ccccc2c1)c1cc(F)c(F)cc1Cl, the Potency is reported as inconclusive: 1.58 µM [activator, full curve, poor fit].
For O=C(N=C1SCC(=O)N1c1ccccc1)c1ccco1, the Potency was inconclusive: 12.6 µM [activator, partial curve, poor fit].
In the case of Cc1ccc(C(=O)NC(=S)NCC2CCCO2)cc1 (configuration not stated), the Potency is reported as active: 10 µM.
With CC(CC(=O)Nc1ccc2c(c1)OCO2)c1ccccc1 (configuration not stated) the Potency was inconclusive: 35.5 µM [activator, single point].
For C(=C\c1ccccn1)/c1ccncc1, the “activation” value was inactive: 43.3%.
With Nc1nc(NC(=O)c2ccco2)nn1-c1ccccc1 the Potency was inconclusive: 12.6 µM [activator, partial curve, poor fit].
With CCOC(=O)N/N=C/C(Cl)=C/c1ccccc1 the Potency was inconclusive: 10 µM [activator, partial curve, poor fit].
For CCCc1nn(C)c(C(=O)Nc2cccc(CC)c2)c1Cl, the Potency was inconclusive: 12.6 µM [activator, partial curve, poor fit].
For Cc1ccc2nc(C3CCCCC3)[nH]c2c1, the Potency was inconclusive: 3.55 µM [activator, partial curve, poor fit].
In the case of CCc1ccccc1NC(=O)CSc1nc2n[nH]c(C)c2c(=N)n1-c1ccc(OC)cc1, the “activation” value is reported as inactive: -42.8%.
In the case of CN(C)c1cccc(C(=O)NC2CCCCCC2)c1, the Potency is reported as active: 10 µM.
With c1ccc(OCCN2CCN(C(c3ccccc3)c3ccccc3)CC2)cc1 the “activation” value was inactive: -52.7%.
In the case of CCOc1ccc(N(CC(=O)NCc2ccc(OC)cc2)S(C)(=O)=O)cc1, the Potency is reported as inconclusive: 11.2 µM [activator, partial curve, poor fit].
In the case of Cc1nc(N2CCN(Cc3ccccc3)CC2)nc2c1C(=O)CC(C)C2 (configuration not stated), the “activation” value is reported as inactive: -36.3%.
With Cc1ccccc1-c1csc(C(O)c2ccccc2)n1 (configuration not stated) the Potency was inconclusive: 25.1 µM [activator, single point].
With CC(C)C(=O)OCC(=O)Nc1ccc(N=Nc2ccccc2)cc1 the Potency was inconclusive: 1.41 µM [activator, full curve, poor fit].
